Experimental data taken from the supplement of paper PMC11417369.
± gives the standard deviation of the averaged measurements. Some of the results follow.

System: PfAP2-LT AP2 domain (GST-tagged)
Assay: gcPBM binding intensity (ln(normalized median fluorescence intensity)); higher = stronger DNA binding
In short: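 The binding buffer was 1× PBS containing 1% milk, 0.2 mg/ml BSA, 0.5% salmon testes DNA and 0.03% Triton X-100. In it, GST-tagged P. falciparum DNA-binding domains expressed in E. coli were applied for 1 h to an Agilent 4 × 180k array of primer-extended double-stranded 36-bp intergenic genomic probes plus negative controls. Binding intensity, read with Alexa488 anti-GST antibody and a 488 nm scan, is the highest Masliner-normalised natural-log median intensity across replicate spots of either probe orientation.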

Sequence	gcPBM binding intensity (ln)
TATAAAAAAAAATGTGGTACATATTTCCATTTTCCA [XGTACX_site4571]	8.53 ± 0.36
TATAATAATACTTATTGTACTATTAGTTTAATTCAT [XGTACX_site6638]	8.61 ± 0.48
TTTTTAATCCTTTGCGCATGTAAAATTATATATTTT [TGCATGCA_site306]	8.76 ± 0.42
TATATATATATGTGTACACAAAAAATATTATATTAT [CACACA_site5505]	8.94 ± 0.44
ATTCTATTTTTAAGTACACACATATATATATATATA [CACACA_site3658]	9.27 ± 0.042
ACATAATTATTATGCACACATATTTTTATGTATTTA [CACACA_site698]	9.12 ± 0.39
ATACTTTATTAATATTGTACAAAATAAGAAAAAAAA [XGTACX_site310]	8.59 ± 0.47
CACAACAGGGTTGAGGTGCGTAAAAATAGTAGAATA [GTGCAC_site9523]	8.74 ± 0.6
ACATAAAAATTATGCACACTTAATAAAGCGAAATGT [CACACA_site3183]	9.1 ± 0.39
TTTTGAAGTAATACATGTACTTAAATTACTAAAAAA [XGTACX_site1955]	8.46 ± 0.43
ACTTTGCGTTAAAAGAGTACATAATATTTTTTTTTT [XGTACX_site7533]	8.51 ± 0.42
GCTTATTTTAATTCTTGTACTTATTTATATACAAAT [XGTACX_site2099]	8.84 ± 0.36
TTGAAAATTCTTAAGGCACACACATATATAATATAT [CACACA_site8088]	9.07 ± 0.38
TAATGGTGTTCATGTGGTACACTTTATAAATTGGCA [XGTACX_site729]	8.66 ± 0.43
AAACTAACTCTAACATGTACATATATATATATATAT [XGTACX_site6949]	9.59 ± 0.057
ATCACAAAAAAGTTCATACACACAACCTATTTATAT [CACACA_site2888]	9.07 ± 0.37
AAATCAAATTTTTAGAGTACTTAAGTTTTCTATATA [XGTACX_site7827]	8.42 ± 0.44
TAATATATTAATATATGTACATATTTATATATCTAC [XGTACX_site7117]	8.81 ± 0.51
TCCCCATATGTTTTGTGTACATATATATTTTTTTGT [XGTACX_site75]	9.16 ± 0.48
ATAAAGTCTATATTATGTACATATAATATAAATATT [XGTACX_site6703]	8.65 ± 0.45
AAAAAACTTCACATATGTACTTAAAAAAAATTAAAA [XGTACX_site2368]	8.39 ± 0.47
GAACATTACGTAAATAAATAAATAAAAATAAATACA [XGTACX_negctrl_site25]	8.98 ± 0.54
TATTGTCTTGTATATGCATGTAGACCAAATATGTAA [TGCATGCA_site9]	8.6 ± 0.41

Sequence	gcPBM binding intensity (ln)
CAAAAAAAAATCTGTAGTACTTATTAATATTGCTGT [XGTACX_site4767]	8.63 ± 0.47
CAAGGAACCAGACACACACACATAAATGTATATATA [CACACA_site752]	9.62 ± 0.47
TGATTATTATAATTTAGTACATAATATTTTATATAA [XGTACX_site6125]	8.26 ± 0.38
ATATATGGAAAGAGTAGTACTATTATAGGGGTGTTA [XGTACX_site6785]	8.98 ± 0.35
AAAACAAAAGAATTCACACATATATATATATATATA [CACACA_site4777]	10.1 ± 0.16
AAAATTAAACATACATCACACATGCATTATATTATG [CACACA_site5517]	8.96 ± 0.4
TTAAACGTACATAATACACACACATGTAGACATATA [CACACA_site8635]	9.29 ± 0.36
AAAATTAACGAGTGCACACATATTTAGATAAAATAC [CACACA_site2936]	9.25 ± 0.37
AAATAAGAGCGTAGCACACACGCATTTTATAAATGG [CACACA_site4571]	9.19 ± 0.57
TCATATAAGTTTAGTAGTACTAAAAGTTAGAGAGAA [XGTACX_site3430]	8.97 ± 0.57
ATTTATTTTAAATAAGTGCAAAATGGTTATAAATAA	8.58 ± 0.44
ATAAATATTTTGTAAGCATGCTTTTAAAAAAAGAAA [TGCATGCA_site572]	8.48 ± 0.49
AAAATTTCAATAAATACACACATATAAATATAGATT [CACACA_site6893]	8.9 ± 0.47
ATGTACTATAGGCACACACACTCACATATATATATA [CACACA_site5745]	9.62 ± 0.3
TGAAAATATATAACGCGTACAAAAAGGAAATACAAT [XGTACX_site3534]	9.28 ± 0.39
AAATAGTTGTTAAAGGTGCACAATATGGATATAAGA	9.14 ± 0.59
TTTTTTTTTTTTTTTGCATGTTGAAAATAAAATTAT [TGCATGCA_site86]	8.37 ± 0.23
GGAATAACCAGACACACACACACATATAAATATGTA [CACACA_site7632]	10.1 ± 0.41
TAAATACAAGAACTGACACACATACATACTACATTT [CACACA_site5561]	9.38 ± 0.28
ATATATTTTTATATAGTGCAAGTAATAAAAAGGAAT	8.82 ± 0.39
GGAAAAAAATAAAATAAGTATTTTACATACATATTG [TGCATGCA_negctrl_site10]	8.42 ± 0.52
ATAACATTCAAAAAATGTACAAACATATGAATAAAT [XGTACX_site7013]	8.97 ± 0.42
ATATCATTTTATTTGTGTACTTAAAAAGTTGCAATG [XGTACX_site4099]	8.67 ± 0.4

Sequence	gcPBM binding intensity (ln)
TACCTATACAGACACACACACACACGCCCACAAAAA [CACACA_site6375]	10.2 ± 0.37
TTTTTATATTTATATAAATAAAAAAATAACAAAATG [XGTACX_negctrl_site231]	8.29 ± 0.33
TAAAATTAAACAAAAAAAAAGAAAAAAAAAAAAAAG [CACACA_negctrl_site1098]	8.41 ± 0.59
CTCCATATTAGACACACACACAAATGAAAAAAATAT [CACACA_site7420]	9.56 ± 0.45
TGAACATACATCAAAAGTACAAACTCGCATGTTATA [XGTACX_site3320]	8.95 ± 0.42
CCGCCATTGTACCATCCACACACATATATATATGTA [CACACA_site8866]	9.46 ± 0.33
AATGTAGACACATATGTACACACATATATATGTATA [CACACA_site9014]	9.23 ± 0.47
AATATTCTATATGATACATGCATGATGGAATAAAAA [TGCATGCA_site980]	8.93 ± 0.3
TTTTGGTATACGTAATTATATAATATGTTAATCAAT [CACACA_negctrl_site645]	8.61 ± 0.36
TTTTTAAAAAGTAACACACACTCTTATATATAATGA [CACACA_site3618]	8.97 ± 0.46
AAAAAAAACAGACACACACACATAAATATAAATAAA [CACACA_site6214]	9.74 ± 0.31
TATACATATATATATATATATAGATATATTCACGTG [XGTACX_negctrl_site265]	9.31 ± 0.21
AAAATAATAATAAATGCATGTGTTGTTTACTAAGAA [TGCATGCA_site528]	8.85 ± 0.42
TGTTCAGTATTGCACACACACAACAAAATAAAAAAA [CACACA_site6314]	9.64 ± 0.36
ATATATATATATATATGTACTTAATGTTATTATATA [XGTACX_site4508]	9.48 ± 0.028
GAAATGTGATAATATACACACACGCATATATATATA [CACACA_site4332]	9.88 ± 0.2
ATTATATATATATTATGTACATATATTGAAGTGGAT [XGTACX_site5916]	8.77 ± 0.44
TACGAAATCATATGTACACACACATATATATATATA [CACACA_site5216]	9.8 ± 0.14
ACGGATTAAAAAATGTGTACGCACAAAAAAAAAAAT [XGTACX_site8259]	9.14 ± 0.52
TTCATATAATTCATCTGTACATATTGATAGTATGCA [XGTACX_site6386]	8.72 ± 0.49
TGTTTTATTTATTAAGCACACGCGATTTAAAAAATA [CACACA_site981]	8.43 ± 0.38
TCAAATGTGTAATCTTGTACACATTAAAAGAAAAAA [XGTACX_site8822]	8.73 ± 0.49
AATAATATATGGACATGTACATAATATATATTTTTT [XGTACX_site312]	8.93 ± 0.47

Sequence	gcPBM binding intensity (ln)
ATCAAAATTGTCATTACACACCTTTATTTTTATAAT [CACACA_site5071]	8.95 ± 0.4
AAGAAAAAGAATAACCTTATTTCTATATACTAATTT [TGCATGCA_negctrl_site477]	8.46 ± 0.33
TTTGTTCTTTTTGAAGTGCACTGAAATATAACAAAA	8.33 ± 0.31
AAAAAAACACACACATATATATATATATATATATAT [GTGCAC_negctrl_site498]	10.2 ± 0.16
TAATATATTAATATATGTACGTATTTTTATTAATAT [XGTACX_site5346]	8.69 ± 0.35
TTAAATAATTCTTTTAGTACACACGAATAAGCAGAT [XGTACX_site623]	8.74 ± 0.42
TATCTTATATATAAGTGTACGCAGATTCTTACGATA [XGTACX_site6058]	8.54 ± 0.47
ATAATTAATGATGTATGTACGGAATTTATATATTTG [XGTACX_site5685]	8.7 ± 0.47
ATAGTAATAGAATGATTGCACTTAAATTTTCCCTCT	8.71 ± 0.3
GTATACATATTTATAATAATAAATGTCTTATATTTT [CACACA_negctrl_site688]	8.61 ± 0.46
TATGTATTAATGAGAACATGCAAAATAATAAACAAT [TGCATGCA_site362]	8.95 ± 0.43
ATATATCAAATAGACAAACACACAAAGGAAGAGTGA [CACACA_site3922]	9.24 ± 0.47
CATATACACGAACACACACACACACGCACAAAAAAA [CACACA_site6376]	10.1 ± 0.24
CACAGACACGGACACACACACACACCCAGACACATA [CACACA_site4357]	10.1 ± 0.43
ATATATATATATATATGTACATATGTCAACTGTCTA [XGTACX_site8636]	10.1 ± 0.43
CATACATACAAACACACACACATATATATACATACA [CACACA_site852]	10.1 ± 0.38
TTTCTTTTTTCACGTGCATGCCATTTAAGTATTAAT [TGCATGCA_site651]	9.19 ± 0.47
GAATTATAAGAATAAACACACAAGCTTAAAAAAAAA [CACACA_site1204]	8.79 ± 0.51
AGAATTCAACAATGTTGTACATACACACACACAAAA [XGTACX_site5035]	9.56 ± 0.4
TTTGTTTGGTTTTGGTGTACTTTTTTTTTTTTTTCT [XGTACX_site2050]	9.03 ± 0.45
ACATATGTATAATATGCACACGTCATTTTCCCCTTA [CACACA_site5194]	9.29 ± 0.38
